Assay results from PubChem BioAssay AID1240 (Sanford-Burnham Center for Chemical Genomics, 2008).
In all, about 50,000 compounds went through this assay and about 800 (1.6%) showed an effect of 50% or more. The list shows a part of the results.

Target: Bcl-2-like protein 10 (Homo sapiens) (UniProt Q9HD36)
Assay: Phenotype converters, Bcl-B/TR3 peptide binding displacement, primary biochemical FP (AID 1240);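 further: 0% = Bcl-B with tracer peptide and DMSO and 100% = tracer peptide lacking Bcl-B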
Details: GST-Bcl-B / FITC-TR3 peptide fluorescence polarization; stronger effect = higher value; compound at 3.75 mg/L

UniProt Q9HD36, sequence (Q9HD36 whole entry, looked up): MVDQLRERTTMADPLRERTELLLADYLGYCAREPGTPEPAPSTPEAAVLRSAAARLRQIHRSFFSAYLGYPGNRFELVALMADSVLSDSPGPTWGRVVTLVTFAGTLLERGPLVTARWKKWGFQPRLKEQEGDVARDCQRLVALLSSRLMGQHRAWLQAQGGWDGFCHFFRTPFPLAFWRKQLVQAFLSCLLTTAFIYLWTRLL

Row | SMILES | displacement
1 | C[n+]1ccccc1/C=C\c1ccccc1O | -3.1%
2 | CCC1=NN(C(=O)c2ccncc2)C(O)(c2ccc(Br)cc2)C1 (centres undefined) | 10.2%
3 | COc1ccc(C)cc1NC(=O)COc1ccc(F)cc1 | 6.7%
4 | N#C/C(=C/c1cccc2ccccc12)C(=O)Nc1ccc(O)cc1 | 0.2%
5 | C=CCc1cc(/C=C2/C(=O)NC(=O)N(c3ccc(OC)cc3)C2=O)cc(OC)c1O | -1%
6 | COc1ccccc1C(=O)CC(=O)Nc1ccccc1 | -0.5%
7 | Cc1ccc(C)n1-c1ccc(Cl)c(C(=O)NN)c1 | -58.5%
8 | COC(=O)C1=NNC2C(=O)N(c3ccccc3C)C(=O)C12 (centres undefined) | -4.3%
9 | Cc1cc(C)cc(C(=O)N2CCN=C2c2ccccc2)c1 | -7.8%
10 | CCOC(=O)c1cnn2c(C)cc(-c3ccc(F)cc3)nc12 | -1.8%
11 | CCOC(=O)C(CC)Oc1ccc2c(C)cc(=O)oc2c1 (centres undefined) | -11.3%
12 | Cc1ccc(CN2C(=O)C(C)(C)N(C(=O)c3cccc([N+](=O)[O-])c3)c3ccccc32)c(C)c1 | 0.4%
13 | O=C(Nc1ccc([N+](=O)[O-])cn1)C1c2ccccc2Oc2ccccc21 | 7.1%
14 | Cc1ccccc1C(=O)Nc1cccc(NC(=O)c2cccc(Cl)c2)c1 | 10.5%
15 | c1ccc(Oc2cccc(CN3CCN(Cc4ccncc4)CC3)c2)cc1 | 0.4%
16 | CCOC(=O)c1ccccc1NC(=O)c1sc(NC(=O)C2CC2)c(C(=O)OCC)c1C | -2.5%
17 | CCN(CC)c1nc(-c2ccccc2)c2cc(Cl)ccc2n1 | -1.2%
18 | Cc1ccc2c(c1)-c1c(ssc1=S)C(C)(C)N2C(=O)c1ccco1 | -6%
19 | O=C1/C(=C/c2c3ccccc3nc3ccccc23)Sc2ccccc21 | -0.5%
20 | COC(=O)c1c(NC(=O)c2ccc(OC)c(OC)c2)sc2c1CCC(C)C2 (centres undefined) | 8.9%
21 | O=C(Nc1ccc(I)cc1Cl)c1cccc(Cl)c1 | 11.6%
22 | O=C(Nc1ccccc1)Nc1nnc(-c2ccccc2)s1 | 6.4%
23 | COc1ccc(C(=O)/C=C/C=C(Cl)Cl)cc1 | 20.4%
24 | CC(=O)N(CCN(C(C)=O)c1ccccc1C)c1ccccc1C | -0.1%
25 | CCN(CC)CC#CC(C)(C)OC(C)=O | -12.3%

Row | SMILES | displacement
26 | O=C(Nc1ccc(-c2nc3ccccc3[nH]2)cc1)c1cccs1 | -7.9%
27 | CC(C)c1ccc(NC2=NS(=O)(=O)c3cc([N+](=O)[O-])ccc32)cc1 | -8.3%
28 | COc1ccccc1CNC(=O)C1CC(=O)N(c2ccc(C)cc2)C1 (centres undefined) | 5.1%
29 | COc1ccccc1NC(=O)C1=C(C)NC(=S)NC1c1ccccc1Br (centres undefined) | -20.5%
30 | CC(=O)c1c(C)[nH]n(-c2ccccc2)c1=O | 5.2%
31 | COc1ccc(Br)cc1C(=O)Nc1nc(C)cs1 | -8.9%
32 | COc1ccc(C2C(C(C)=O)=C(Nc3ccc(Br)cc3)CC(C)(O)C2C(C)=O)cc1 (centres undefined) | 90.9%
33 | CCOC(=O)C1=C(C)N=c2s/c(=C\c3ccc(N(C)C)cc3)c(=O)n2C1c1ccc(OC)cc1 (centres undefined) | 4.8%
34 | Cc1cc(C)c(C#N)c(SCC(=O)c2ccc(O)c(O)c2)n1 | 5.8%
35 | COc1cc(Br)c(Nc2nc(-c3cccnc3)cs2)c(Br)c1 | -8.4%
36 | O=C1c2ccc(-c3nc4ccccc4c(=O)o3)cc2C(=O)N1c1nccs1 | 8.4%
37 | CC(C)OC(=O)CSC1=C(C#N)C(c2ccc(Cl)cc2Cl)CC(=O)N1 (centres undefined) | -0.6%
38 | Cc1cc(C)n2c(SCc3ccc(Br)cc3)nnc2n1 | -4%
39 | CN(C)c1ccc(/C=N/NC(=O)CN2CCCCC2)cc1Br | 3.3%
40 | N#CCC(=O)N1CCN(C(c2ccccc2)c2ccccc2)CC1 | 0.5%
41 | CSCCOC(=O)C1=C(C)NC(=O)NC1c1ccc([N+](=O)[O-])cc1 (centres undefined) | 5.2%
42 | O=C1CC(S(=O)(=O)O)c2ccccc2/C1=N/O (centres undefined) | -0.8%
43 | O=[N+]([O-])c1ccc(NCCNS(=O)(=O)c2ccccc2)cc1 | -0.9%
44 | CCC(=O)c1ccc(N2CCN(C(=O)c3cc(F)c(F)cc3Cl)CC2)c(F)c1 | -8.7%
45 | N#C/C(=C\c1ccccc1Cl)C(N)=O | -2.5%
46 | COc1cc(NC(=O)COc2ccc(Cl)cc2Br)c(OC)cc1Cl | 2.5%
47 | CCOC(=O)COc1ccc(Br)cc1/C=C1/C(=O)NN(c2cccc(Cl)c2)C1=O | 3.9%
48 | CCOc1ccc(C(=O)Nc2ccc(NC(=O)c3ccco3)c(OC)c2)cc1Br | -3.1%
49 | CN(/N=C/c1cc([N+](=O)[O-])ccc1O)c1ccccc1 | 4.7%
50 | Cc1nc2ccccc2n1Cc1ccc(Br)cc1 | 7.1%

Row | SMILES | displacement
51 | Cn1c(NC(=O)c2ccc(Cl)cc2)nc2ccccc21 | 7.4%
52 | COc1ccc(C(=O)Oc2ccc3c(C)cc(=O)oc3c2C(C)=O)cc1OC | -1.3%
53 | CCc1cccc(C)c1NC(=O)COc1ccc(C)c(C)c1 | -1.3%
54 | Cc1cccc(N2CCN(C(=O)/C=C/c3ccc(Cl)cc3)CC2)c1C | -8.2%
55 | CCOc1ccc(NC(=O)CSc2nc3ccccc3c(=O)n2-c2ccccc2)cc1 | 9.1%
56 | CCOC(=O)c1sc(NC(=O)c2ccc(OCC)c(Cl)c2)nc1C | 23.8%
57 | O=C(COc1ccc(Cl)cc1)NNC(=O)C(=O)NCCO | -8%
58 | CCc1c(C)n(CC(=O)N/N=C/c2ccc(Cl)cc2)n2cnnc2c1=O | -8.9%
59 | COc1ccc(CC(=O)NCCC2=CCCCC2)cc1 | -1.5%
60 | Cc1ccc(C)c(OCC(O)CN2CC(C)CC(C)C2)c1 (centres undefined) | 3.2%
61 | CCOP(=O)(OCC)C(Nc1ccccc1)c1ccc2c(c1)OCO2 (centres undefined) | 13.6%
62 | Cc1cc(=O)oc2c(C=NC3CCCCC3)c(O)ccc12 | -7.2%
63 | COc1ccc(O)c(CN2CCN(Cc3ccc(SC)cc3)CC2)c1 | 0.9%
64 | Cc1c(C(=O)Nc2ccc(NC(=O)c3ccco3)c(Cl)c2)cccc1[N+](=O)[O-] | -0.9%
65 | CCN(CC)CCN1C(=O)C(=O)/C(=C(/O)c2ccc(Br)cc2)C1c1ccccc1F (centres undefined) | -4%
66 | COc1cccc(C(=O)/C=C/c2ccc(OC)c(OC)c2)c1 | 3.8%
67 | O=C1Nc2ccccc2C1=Nc1ccc(Br)cc1 | 5.3%
68 | O=C(NCc1ccc(Cl)c(Cl)c1)c1cccc(F)c1 | 3.8%
69 | O=C1Nc2c(Cl)cc(Cl)c3cccc1c23 | 1.5%
70 | COc1ccc(-c2nc3cc(NC(=O)C(C)C)ccc3o2)cc1OC | 13.1%
71 | Cc1ccc(SCCc2ccncc2)cc1 | 2.5%
72 | Oc1ccccc1C(=S)N1CCCCC1 | -2.7%
73 | O=C(Nc1nc2ccc([N+](=O)[O-])cc2s1)c1cccc(F)c1 | 10.9%
74 | S=C(NCCSCc1ccc(Cl)cc1)Nc1ccccc1 | 6.3%
